Data from paper PMC11758731.
Results are given in words; binding and its absence hold for the method and conditions named. In cells and extracts the contact can be indirect. Some entries that bind do so weakly or less than the wild type.

Sequences of proteins named here, by UniProt entry; tags and fusion partners are left off.
UniProt P51452: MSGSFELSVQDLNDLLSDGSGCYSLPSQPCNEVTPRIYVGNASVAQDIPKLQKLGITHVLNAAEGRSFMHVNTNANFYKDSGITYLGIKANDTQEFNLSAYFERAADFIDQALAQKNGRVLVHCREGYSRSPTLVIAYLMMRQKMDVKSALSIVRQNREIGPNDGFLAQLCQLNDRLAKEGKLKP
UniProt Q8N9U0: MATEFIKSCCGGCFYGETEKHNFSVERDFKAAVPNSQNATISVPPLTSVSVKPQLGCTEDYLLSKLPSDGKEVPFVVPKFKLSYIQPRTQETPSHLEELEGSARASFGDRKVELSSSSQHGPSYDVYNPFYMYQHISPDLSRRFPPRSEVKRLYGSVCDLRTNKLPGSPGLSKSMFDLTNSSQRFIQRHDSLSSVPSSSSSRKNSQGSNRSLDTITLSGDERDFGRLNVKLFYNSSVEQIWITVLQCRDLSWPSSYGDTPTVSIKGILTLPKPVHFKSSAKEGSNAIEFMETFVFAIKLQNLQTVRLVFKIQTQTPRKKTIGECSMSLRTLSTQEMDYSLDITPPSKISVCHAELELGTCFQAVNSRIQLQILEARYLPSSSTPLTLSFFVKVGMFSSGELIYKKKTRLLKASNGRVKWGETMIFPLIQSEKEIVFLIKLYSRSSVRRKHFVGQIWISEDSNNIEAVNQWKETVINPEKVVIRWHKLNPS
UniProt Q9D7X3: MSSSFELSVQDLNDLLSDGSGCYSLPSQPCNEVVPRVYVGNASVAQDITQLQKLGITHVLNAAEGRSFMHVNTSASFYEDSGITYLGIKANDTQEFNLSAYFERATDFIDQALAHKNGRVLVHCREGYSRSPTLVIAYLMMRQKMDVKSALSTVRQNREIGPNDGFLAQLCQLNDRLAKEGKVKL
UniProt P27361: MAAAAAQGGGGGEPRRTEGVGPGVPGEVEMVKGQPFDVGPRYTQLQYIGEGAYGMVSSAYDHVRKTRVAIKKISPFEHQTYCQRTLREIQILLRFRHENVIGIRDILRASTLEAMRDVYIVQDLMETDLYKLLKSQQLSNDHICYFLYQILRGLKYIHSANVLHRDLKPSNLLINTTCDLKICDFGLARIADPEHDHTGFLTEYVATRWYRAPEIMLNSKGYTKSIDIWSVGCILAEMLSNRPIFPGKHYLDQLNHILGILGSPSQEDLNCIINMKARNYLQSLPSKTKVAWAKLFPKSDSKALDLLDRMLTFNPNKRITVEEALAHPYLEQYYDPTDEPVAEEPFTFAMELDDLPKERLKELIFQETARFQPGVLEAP
UniProt Q63844: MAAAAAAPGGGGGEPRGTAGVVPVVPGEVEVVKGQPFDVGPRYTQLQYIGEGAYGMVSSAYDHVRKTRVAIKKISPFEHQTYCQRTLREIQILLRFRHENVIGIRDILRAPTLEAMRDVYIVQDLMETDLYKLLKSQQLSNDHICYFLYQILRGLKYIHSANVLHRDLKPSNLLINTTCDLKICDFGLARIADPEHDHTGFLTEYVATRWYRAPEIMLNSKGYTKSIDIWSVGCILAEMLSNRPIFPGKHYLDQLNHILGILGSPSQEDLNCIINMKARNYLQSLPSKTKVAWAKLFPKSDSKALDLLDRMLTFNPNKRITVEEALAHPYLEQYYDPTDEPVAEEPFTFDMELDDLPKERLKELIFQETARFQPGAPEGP
UniProt P28482: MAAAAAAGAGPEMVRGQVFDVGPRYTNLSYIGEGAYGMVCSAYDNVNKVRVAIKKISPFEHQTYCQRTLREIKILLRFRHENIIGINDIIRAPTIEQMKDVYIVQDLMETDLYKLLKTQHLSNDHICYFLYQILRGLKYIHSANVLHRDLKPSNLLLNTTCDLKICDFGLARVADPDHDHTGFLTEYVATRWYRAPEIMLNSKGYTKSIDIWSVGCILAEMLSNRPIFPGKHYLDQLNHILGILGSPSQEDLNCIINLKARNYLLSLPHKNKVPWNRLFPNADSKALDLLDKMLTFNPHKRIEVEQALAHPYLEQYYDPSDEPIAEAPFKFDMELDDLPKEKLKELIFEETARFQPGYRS
UniProt P63085: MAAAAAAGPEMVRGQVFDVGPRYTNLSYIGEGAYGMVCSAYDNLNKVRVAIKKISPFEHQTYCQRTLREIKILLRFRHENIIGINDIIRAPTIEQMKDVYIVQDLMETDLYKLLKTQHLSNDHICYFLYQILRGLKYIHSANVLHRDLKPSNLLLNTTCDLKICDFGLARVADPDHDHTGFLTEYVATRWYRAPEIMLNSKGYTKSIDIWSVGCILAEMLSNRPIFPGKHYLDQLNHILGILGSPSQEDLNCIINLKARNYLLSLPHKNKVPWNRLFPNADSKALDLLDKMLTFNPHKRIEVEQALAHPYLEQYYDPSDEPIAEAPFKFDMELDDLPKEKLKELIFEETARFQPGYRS
UniProt Q05397: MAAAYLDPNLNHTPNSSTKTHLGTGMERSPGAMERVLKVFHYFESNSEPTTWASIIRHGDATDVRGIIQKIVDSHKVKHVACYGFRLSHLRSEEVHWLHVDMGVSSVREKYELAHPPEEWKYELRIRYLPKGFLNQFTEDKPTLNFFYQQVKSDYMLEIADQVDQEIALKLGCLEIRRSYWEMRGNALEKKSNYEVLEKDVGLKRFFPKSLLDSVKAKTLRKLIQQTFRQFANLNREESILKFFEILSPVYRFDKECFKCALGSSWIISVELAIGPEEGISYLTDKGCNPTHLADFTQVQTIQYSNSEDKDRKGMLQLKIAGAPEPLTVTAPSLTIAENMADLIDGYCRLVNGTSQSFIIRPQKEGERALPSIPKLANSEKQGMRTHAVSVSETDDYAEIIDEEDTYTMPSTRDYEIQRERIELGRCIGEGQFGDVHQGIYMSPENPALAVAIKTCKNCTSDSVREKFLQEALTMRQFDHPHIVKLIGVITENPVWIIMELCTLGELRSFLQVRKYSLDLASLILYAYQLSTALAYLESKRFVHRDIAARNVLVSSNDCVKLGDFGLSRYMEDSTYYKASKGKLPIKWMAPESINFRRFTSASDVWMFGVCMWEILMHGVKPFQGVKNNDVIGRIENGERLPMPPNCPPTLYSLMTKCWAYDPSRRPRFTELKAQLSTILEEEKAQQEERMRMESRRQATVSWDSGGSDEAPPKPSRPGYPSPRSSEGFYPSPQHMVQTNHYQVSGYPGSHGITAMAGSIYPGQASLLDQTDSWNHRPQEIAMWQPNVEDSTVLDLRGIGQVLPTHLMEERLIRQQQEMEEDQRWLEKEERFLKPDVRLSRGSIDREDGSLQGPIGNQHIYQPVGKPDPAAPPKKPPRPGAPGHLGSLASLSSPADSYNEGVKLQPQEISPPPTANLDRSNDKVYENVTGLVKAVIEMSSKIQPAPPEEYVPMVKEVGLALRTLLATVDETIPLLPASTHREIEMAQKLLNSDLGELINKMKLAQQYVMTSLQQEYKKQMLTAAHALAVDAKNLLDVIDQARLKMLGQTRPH
UniProt P34152: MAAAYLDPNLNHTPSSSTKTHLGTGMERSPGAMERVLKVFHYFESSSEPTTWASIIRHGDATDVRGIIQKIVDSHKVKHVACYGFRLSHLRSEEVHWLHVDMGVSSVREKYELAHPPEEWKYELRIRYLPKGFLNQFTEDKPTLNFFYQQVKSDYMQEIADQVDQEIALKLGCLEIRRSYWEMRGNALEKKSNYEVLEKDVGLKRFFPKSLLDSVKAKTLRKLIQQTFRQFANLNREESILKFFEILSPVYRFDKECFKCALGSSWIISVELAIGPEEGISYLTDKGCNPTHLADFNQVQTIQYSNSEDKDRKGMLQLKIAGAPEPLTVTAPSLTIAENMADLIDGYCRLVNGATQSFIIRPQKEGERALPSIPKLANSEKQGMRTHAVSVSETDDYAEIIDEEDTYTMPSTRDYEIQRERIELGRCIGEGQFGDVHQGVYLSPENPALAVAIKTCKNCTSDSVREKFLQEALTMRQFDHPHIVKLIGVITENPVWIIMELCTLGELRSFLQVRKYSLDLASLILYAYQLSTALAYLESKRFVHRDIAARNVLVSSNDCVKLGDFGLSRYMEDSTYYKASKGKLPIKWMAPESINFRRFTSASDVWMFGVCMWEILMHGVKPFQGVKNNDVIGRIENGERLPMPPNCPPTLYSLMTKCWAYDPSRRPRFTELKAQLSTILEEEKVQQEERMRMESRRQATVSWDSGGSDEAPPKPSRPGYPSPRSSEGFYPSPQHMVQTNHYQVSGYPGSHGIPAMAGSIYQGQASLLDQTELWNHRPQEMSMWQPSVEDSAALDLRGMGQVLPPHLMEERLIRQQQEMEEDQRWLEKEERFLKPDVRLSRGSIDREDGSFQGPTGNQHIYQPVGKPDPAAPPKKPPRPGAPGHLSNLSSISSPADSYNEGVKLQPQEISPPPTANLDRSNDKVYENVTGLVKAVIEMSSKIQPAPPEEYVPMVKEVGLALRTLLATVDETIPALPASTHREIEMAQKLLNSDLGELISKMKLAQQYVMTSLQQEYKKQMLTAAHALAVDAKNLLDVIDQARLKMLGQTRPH
UniProt P40763: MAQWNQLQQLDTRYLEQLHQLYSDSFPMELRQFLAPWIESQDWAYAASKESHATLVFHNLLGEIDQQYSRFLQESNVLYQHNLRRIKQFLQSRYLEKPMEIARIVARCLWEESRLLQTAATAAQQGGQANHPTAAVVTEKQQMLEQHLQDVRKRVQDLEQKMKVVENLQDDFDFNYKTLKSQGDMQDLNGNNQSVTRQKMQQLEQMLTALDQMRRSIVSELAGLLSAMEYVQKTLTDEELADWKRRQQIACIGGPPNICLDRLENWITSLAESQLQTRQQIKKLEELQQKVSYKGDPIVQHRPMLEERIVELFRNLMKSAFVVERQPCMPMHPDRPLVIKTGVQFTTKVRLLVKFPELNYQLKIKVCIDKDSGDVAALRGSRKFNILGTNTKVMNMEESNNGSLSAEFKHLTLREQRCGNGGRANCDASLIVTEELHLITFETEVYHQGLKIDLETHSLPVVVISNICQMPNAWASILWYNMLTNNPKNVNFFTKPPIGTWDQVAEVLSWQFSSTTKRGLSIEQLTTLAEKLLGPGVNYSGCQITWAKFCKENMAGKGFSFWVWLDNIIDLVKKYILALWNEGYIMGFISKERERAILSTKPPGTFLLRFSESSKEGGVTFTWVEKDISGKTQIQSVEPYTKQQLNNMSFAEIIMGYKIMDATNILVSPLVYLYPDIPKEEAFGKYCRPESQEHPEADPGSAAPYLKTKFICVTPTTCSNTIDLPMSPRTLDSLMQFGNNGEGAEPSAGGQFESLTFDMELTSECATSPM
UniProt P42227: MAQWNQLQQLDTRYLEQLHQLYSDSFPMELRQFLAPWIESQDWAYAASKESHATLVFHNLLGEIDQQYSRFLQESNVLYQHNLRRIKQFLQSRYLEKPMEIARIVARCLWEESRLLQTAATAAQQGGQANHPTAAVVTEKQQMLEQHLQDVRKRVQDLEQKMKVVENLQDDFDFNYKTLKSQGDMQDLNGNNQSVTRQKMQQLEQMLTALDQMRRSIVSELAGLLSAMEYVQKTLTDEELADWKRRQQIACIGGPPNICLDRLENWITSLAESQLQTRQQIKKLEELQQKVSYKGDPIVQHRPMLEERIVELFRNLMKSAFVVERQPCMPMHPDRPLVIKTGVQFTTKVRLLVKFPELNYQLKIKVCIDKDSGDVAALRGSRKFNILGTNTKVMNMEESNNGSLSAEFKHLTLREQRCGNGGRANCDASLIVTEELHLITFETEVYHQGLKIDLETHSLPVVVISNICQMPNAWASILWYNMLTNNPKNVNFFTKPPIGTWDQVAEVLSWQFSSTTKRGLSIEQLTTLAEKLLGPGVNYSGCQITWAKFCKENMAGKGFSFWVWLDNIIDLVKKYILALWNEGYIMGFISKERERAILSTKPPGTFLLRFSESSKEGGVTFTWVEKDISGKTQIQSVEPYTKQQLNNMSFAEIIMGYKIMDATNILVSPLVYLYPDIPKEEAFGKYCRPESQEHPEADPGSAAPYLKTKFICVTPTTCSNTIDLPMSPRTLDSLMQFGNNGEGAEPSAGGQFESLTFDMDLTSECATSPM

Columns and labels:
[1] = molecular target: dual specificity protein phosphatase 3 (DUSP3), endogenous in human lung cancer cells (human (endogenous in A549 and H522 lung cancer cells)) (UniProt P51452); assay: co-IP; extracts of stable lung cancer cell lines (Flag-NC, Flag-TC2N full-length or truncations; TC2N overexpression), IP with anti-DUSP3 antibody and protein A/G agarose beads, 16 h at 4 °C, Western blot with the indicated or Flag antibodies; normal IgG as negative control
[2] = molecular target: Flag-TC2N (Tandem C2 domains, nuclear), full-length (UniProt Q8N9U0); assay: co-IP; extracts of lung cancer cells, IP with anti-Flag antibody and protein A/G agarose beads, 16 h at 4 °C, Western blot with the indicated antibodies; normal IgG as negative control
[3] = molecular target: DUSP3, endogenous in mouse lung tumour (mouse (endogenous in lung tumour of C57BL/6J mice)) (UniProt Q9D7X3); assay: co-IP; extracts of urethane-induced lung tumours of TC2N engineered mice (with or without TC2N deletion), IP with anti-DUSP3 antibody, Western blot with the indicated antibodies; normal IgG as negative control

binding [1]	binding [2]	binding [3]	Substance
binds	no binding		EGFR, endogenous in human lung cancer cells (from UniProt P00533 25-1210) (receptor)
		binds	EGFR, endogenous in mouse lung tumour (from UniProt Q01279 25-1210) (receptor)
binds	no binding		ERK1, endogenous in human lung cancer cells (from UniProt P27361 1-379) (enzyme)
		binds	ERK1, endogenous in mouse lung tumour (from UniProt Q63844 1-380) (enzyme)
binds	no binding		ERK2, endogenous in human lung cancer cells (from UniProt P28482 1-360) (enzyme)
		binds	ERK2, endogenous in mouse lung tumour (from UniProt P63085 1-358) (enzyme)
binds	no binding		FAK1, endogenous in human lung cancer cells (from UniProt Q05397 1-1052) (enzyme)
		binds	FAK1, endogenous in mouse lung tumour (from UniProt P34152 1-1052) (enzyme)
binds			Flag-TC2N (Tandem C2 domains, nuclear), full-length (from UniProt Q8N9U0 1-490)
binds	no binding		STAT3, endogenous in human lung cancer cells (from UniProt P40763 1-770)
		binds	STAT3, endogenous in mouse lung tumour (from UniProt P42227 1-770)
	binds		dual specificity protein phosphatase 3 (DUSP3), endogenous in human lung cancer cells (from UniProt P51452 1-185) (enzyme)
